For 42 sequences, binding signal results are on record in paper PMC7819943, “Rice protein-binding microarrays: a tool to detect cis-acting elements near promoter regions in rice”.

The list shows a part of the results.

In this assay the target is T1, OsWOX13 (Oryza sativa, UniProt Q5QMM3 1-267).
T1 sequence: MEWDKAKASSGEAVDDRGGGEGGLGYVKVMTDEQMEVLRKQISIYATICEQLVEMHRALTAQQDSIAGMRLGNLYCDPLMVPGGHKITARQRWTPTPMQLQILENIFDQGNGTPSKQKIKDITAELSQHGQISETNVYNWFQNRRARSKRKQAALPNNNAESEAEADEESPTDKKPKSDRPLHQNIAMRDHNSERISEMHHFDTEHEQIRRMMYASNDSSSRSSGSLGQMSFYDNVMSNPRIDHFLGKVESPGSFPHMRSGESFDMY
Briefly: protein-binding microarray (RPBM); PBS, 2% BSA, 51.3 ng/ul salmon testes DNA, 50 uM zinc acetate, 200 nM TF, 25 C, 1 h; high values mean tight binding. To be noted: protein: recombinant; tags: N-terminal polyhistidine and DsRed monomer fusion (pET32a); label: CyDye5-dUTP incorporated in the synthesized complementary strand; 3' TTTTT single-stranded linker to array surface; dsDNA, one strand shown. The procedure, abridged: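 In PBS with 2% BSA, salmon testes DNA and 50 µM zinc acetate, 200 nM protein was incubated on a custom Agilent array at 25 °C for 1 h and then washed off. The array had been made double-stranded by primer extension with Cy5-dUTP and blocked with 2% BSA. The proteins were transcription factors fused N-terminally to polyhistidine and DsRed, expressed in E. coli BL21-CodonPlus and purified on Ni–NTA. The binding signal is per-feature fluorescence intensity (arbitrary units) from an Axon 4000B scanner.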
Consider “CTTCTCATGTATTGATTATGGTCAATTGGTCACTCCTCCCCGGAGTCACCTAGTGCAG”, for which the binding signal is 6570 fluorescence intensity (a.u.).

As for “TATCACTATAATAAACATAATTTAACGACATATTTATAGGCGGAGTCACCTAGTGCAG”, the binding signal is 4850 fluorescence intensity (a.u.).

As to “AATGACGGCTTAATTAGGCTCAAAAGATTCGTCTCGCGGTCGGAGTCACCTAGTGCAG”, the binding signal is 14200 fluorescence intensity (a.u.).

With “GGCAAATTGTCAGTTGGTATAACTAACTAATAAGGTACCACGGAGTCACCTAGTGCAG”, the binding signal was 5660 fluorescence intensity (a.u.).

Consider “TTGGATTAGAATTTAATTTGAAGACGACATCCATTGGATACGGAGTCACCTAGTGCAG”, for which the binding signal was 28700 fluorescence intensity (a.u.).

With “CTTTAATTACCACCCGATCTCACCAACAAGCGGGGCAGCTCGGAGTCACCTAGTGCAG”, the binding signal is 20400 fluorescence intensity (a.u.).

Regarding “AACTTTCATTCATTCAATCAATTTACAGAATGGGGTCCATCGGAGTCACCTAGTGCAG”, the binding signal is 26900 fluorescence intensity (a.u.).

In the case of “TGAAATTGGTTGGTTTGGATACTTTGGGGTGCCAAGGTCACGGAGTCACCTAGTGCAG”, the binding signal was 7220 fluorescence intensity (a.u.).

As for “ATGATTTCTTCATTTCAAATCAGTTCTGGTCCCCAAATAACGGAGTCACCTAGTGCAG”, the binding signal was 3830 fluorescence intensity (a.u.).

As to “GGGTAAATTGGAACAATGTCATTATAATTTTGCAAAGTTTCGGAGTCACCTAGTGCAG”, the binding signal is 21400 fluorescence intensity (a.u.).

In the case of “ATCGATTAACAGGTTAAATTGGAGCGTCACGGGCTAGTTCCGGAGTCACCTAGTGCAG”, the binding signal is 31800 fluorescence intensity (a.u.).

With “CTTACCTGCTTTAATTTATGCATAATGTTGCTTCATAAACCGGAGTCACCTAGTGCAG”, the binding signal was 6090 fluorescence intensity (a.u.).

For “CGCCGATGACAGACGGCTGCAAGCGCGCCAAGCGGGTGTTCGGAGTCACCTAGTGCAG”, the binding signal was 4040 fluorescence intensity (a.u.).

For the sequence “TGGAACAGGTATCAATCAAAGGTGGTGGACTAGGTAACTTCGGAGTCACCTAGTGCAG”, the binding signal is 17400 fluorescence intensity (a.u.).

For the sequence “TTGATCTACTCGATTGATATTTAGGGGAAGCAGACACAAACGGAGTCACCTAGTGCAG”, the binding signal was 3250 fluorescence intensity (a.u.).

Turning to “ATTCTAATTTTGATAGATAATTTCACTTGTTTTACTCCTACGGAGTCACCTAGTGCAG”, the binding signal is 25000 fluorescence intensity (a.u.).

Turning to “TATATATATATATATATATATATATAGTTTCTTTATATATCGGAGTCACCTAGTGCAG”, the binding signal was 5160 fluorescence intensity (a.u.).

“GTTTCAATCTCCATTTCTCAATCCTTCTTGAGCACCATCTCGGAGTCACCTAGTGCAG”: the binding signal was 7230 fluorescence intensity (a.u.).

With “ATTAATTAATCACCAAATACTAATGTCAACTCTGCAAGGACGGAGTCACCTAGTGCAG”, the binding signal is 35000 fluorescence intensity (a.u.).

Turning to “TTAATTTGCTATTTATATGATTATAATATACCATCCCCGACGGAGTCACCTAGTGCAG”, the binding signal was 20500 fluorescence intensity (a.u.).

In the case of “TTTTGCAAATTTGTAATAAATTAAAATTTTATTAACCATACGGAGTCACCTAGTGCAG”, the binding signal was 19800 fluorescence intensity (a.u.).

For the sequence “AGTCAGATCGTAAATCACTATAAATTATAGCAGCAGCACGCGGAGTCACCTAGTGCAG”, the binding signal was 9600 fluorescence intensity (a.u.).

As for “CCTCCCTAATTAGTACTCCACTCCACAAAACACCTCCTTCCGGAGTCACCTAGTGCAG”, the binding signal was 17900 fluorescence intensity (a.u.).

Consider “CATTTGATTGTATTTCCATCTTATTCTTAATCTGTATAAGCGGAGTCACCTAGTGCAG”, for which the binding signal was 32100 fluorescence intensity (a.u.).

On to “ATCCGAACATGAAGGATTGGCAATCATATTCTCATGGTGACGGAGTCACCTAGTGCAG”, for which the binding signal was 9570 fluorescence intensity (a.u.).

Regarding “CTCACCAATTGATTTTATTCCTTGTTAAGGACGTAGGATTCGGAGTCACCTAGTGCAG”, the binding signal is 8560 fluorescence intensity (a.u.).

For the sequence “CAAAATGATTTGGTGAATCTAGCCAGCACATACCAATACGCGGAGTCACCTAGTGCAG”, the binding signal is 16800 fluorescence intensity (a.u.).

As to “GTTAGAGGTAATTAGATGTAAATTGAATGTGCAGTATAATCGGAGTCACCTAGTGCAG”, the binding signal is 30500 fluorescence intensity (a.u.).

For the sequence “ACTGTAATTTTAATTATATTATTGTTACACTATAATTGCACGGAGTCACCTAGTGCAG”, the binding signal was 41800 fluorescence intensity (a.u.).

As for “ACTTTAATTACATTTCTTGCTGCAGTTGCACCGGCATGAGCGGAGTCACCTAGTGCAG”, the binding signal is 31600 fluorescence intensity (a.u.).

On to “AATTGACAAAGATGAAACACATGTGGACTGGACTACTCGACGGAGTCACCTAGTGCAG”, for which the binding signal was 3660 fluorescence intensity (a.u.).

Regarding “TGAGGAGCCATGATTACGGAGTAATTTCCATGGTCACAGTCGGAGTCACCTAGTGCAG”, the binding signal was 4070 fluorescence intensity (a.u.).

Turning to “ATACAATTAATTATGGTATCTTTTCCATTAAATTATTACCCGGAGTCACCTAGTGCAG”, the binding signal is 14100 fluorescence intensity (a.u.).

“GCAGTAATTTTGACGAAATTCGTTGAAGAATGATAGCGGTCGGAGTCACCTAGTGCAG”: the binding signal was 16400 fluorescence intensity (a.u.).

Take “TAAATTACATATGTAATTTTAGTGTATTTACAATGTAAGTCGGAGTCACCTAGTGCAG”: the binding signal was 14700 fluorescence intensity (a.u.).

On to “TATATGTCTAATAATTTAACGTTTTACAAATTAGATAAAACGGAGTCACCTAGTGCAG”, for which the binding signal was 7300 fluorescence intensity (a.u.).

As for “TTGATAAACACCGGACACGCAAATTAATATTTGGTGCCGCCGGAGTCACCTAGTGCAG”, the binding signal is 3350 fluorescence intensity (a.u.).

Regarding “TTTATAATTAATTTTCAAACATCCGATGTGATAGGAACTTCGGAGTCACCTAGTGCAG”, the binding signal is 38000 fluorescence intensity (a.u.).

For the sequence “CTAAATTAGTGTTTAAATACAGAGACTAAGAGCACCCGCACGGAGTCACCTAGTGCAG”, the binding signal was 18200 fluorescence intensity (a.u.).

For the sequence “AGAAGAAGCGGTGATTGCTAGCTAGCTAGCGAGCTCCGTCCGGAGTCACCTAGTGCAG”, the binding signal was 5170 fluorescence intensity (a.u.).

As to “ATTTGTCTAGTACTCCTAATTGGTACATCGACGATCTGCGCGGAGTCACCTAGTGCAG”, the binding signal was 6670 fluorescence intensity (a.u.).

Turning to “GATTATTACTAATCAATTTCACTAGTGTTAATGAAATATGCGGAGTCACCTAGTGCAG”, the binding signal is 12400 fluorescence intensity (a.u.).
